{"source": "PubChem BioAssay AID588855", "about": "(National Center for Advancing Translational Sciences (NCATS), 2011)", "note": "The whole screen tested about 410,000 compounds, of which about 5,000 (1.2%) were called active. The shares of active, inactive and inconclusive entries below differ from those in the screen. Calls come from the whole dose curve; as a rule, active = well fitted inhibition curve with a large enough effect; inconclusive = small, poorly fitted or top-dose-only effect; inactive = no such curve, though single readings can be large or run the other way. Where the call is inconclusive, the potency comes from a doubtful curve fit. % is set by controls: 0 for no effect and ±100 for the full control effect; potency is the fitted concentration of half-maximal effect; tags give direction and shape of the fitted curve."}
{"assay": "qHTS for Inhibitors of TGF-b; note: nearly all actives have a fitted effect of over 65% in size", "conditions": "HepG2 CAGA-GFP TGF-b/SMAD3 reporter, GFP fluorescence, 18 h, TGF-beta stimulated, 500 pg/mL final; series mostly up to 46.1 µM; activity, negative = inhibition: at the top concentration", "in_short": "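TGF-beta reporter screen: HEPG2 CAGA-GFP, 1% FBS, 500 pg/mL TGF-beta final, 18 h; per-cell GFP summed per well; curves fitted and categorized by class.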"}
{"compound": "CN(C)c1nc(NCc2ccccc2)nc(N/N=C/c2ccc3c(c2)OCO3)n1", "activity, negative = inhibition": "inactive: 4.91%"}
{"compound": "NS(=O)(=O)c1ccc(NC(=S)N2CCC(Cc3ccccc3)CC2)cc1", "activity, negative = inhibition": "inactive: -19.7%"}
{"compound": "CC(C)CCn1c(=O)c2sccc2n2c(CCCC(=O)NCCc3ccccc3)nnc12", "Potency": "inconclusive: 10 µM [inhibitor, partial curve, poor fit]"}
{"compound": "COc1ccccc1N(C)S(=O)(=O)c1ccc(C(=O)N2CCCC(C(F)(F)F)C2)cc1", "note": "(configuration not stated)", "activity, negative = inhibition": "inactive: -22.1%"}
{"compound": "CCCOC1CCCN(C(=O)c2cc(COc3c(F)cccc3F)on2)C1", "note": "(configuration not stated)", "Potency": "inconclusive: 4.47 µM [inhibitor, single point]"}
{"compound": "COc1cc(CN2CCN(c3ccccc3F)CC2)cc(OC)c1O", "Potency": "inconclusive: 6.31 µM [inhibitor, single point]"}
{"compound": "CC(CCc1ccccc1)NC(=O)COC(=O)c1ccc(S(C)(=O)=O)c([N+](=O)[O-])c1", "note": "(configuration not stated)", "Potency": "inconclusive: 5.01 µM [inhibitor, full curve, poor fit]"}
{"compound": "O=C(N/N=C/c1cc2c3c(c1O)CCCN3CCC2)c1ccccc1O", "Potency": "inconclusive: 20 µM [inhibitor, partial curve, poor fit]"}
{"compound": "O=C(CNC(=S)N(Cc1ccccc1)Cc1cccs1)NCc1ccc(F)cc1", "activity, negative = inhibition": "inactive: 14.3%"}
{"compound": "COc1cc(CNC(C)c2ccccc2)cc(Br)c1OCc1ccc(F)cc1", "note": "(configuration not stated)", "Potency": "inconclusive: 35.5 µM [inhibitor, single point]"}
{"compound": "Cc1nc2ccc(S(=O)(=O)N(CC(=O)Nc3cccc(F)c3)Cc3ccccc3)cc2s1", "Potency": "inconclusive: 20 µM [inhibitor, single point]"}
{"compound": "COc1ccc(C)cc1S(=O)(=O)NCc1cccs1", "Potency": "inconclusive: 35.5 µM [inhibitor, single point]"}
{"compound": "COc1ccccc1CNC(=O)CN1C(=O)COc2ccc(S(=O)(=O)Nc3ccccc3)cc21", "Potency": "inconclusive: 28.2 µM [inhibitor, single point]"}
{"compound": "O=C(CC1S/C(=N/N=C/C=C/c2ccccc2)NC1=O)Nc1ccc(Cl)c(Cl)c1", "note": "(configuration not stated)", "Potency": "inconclusive: 5.62 µM [inhibitor, single point]"}
{"compound": "CC(C)(C)c1ccc(C(=O)NCCc2csc3nc(-c4ccccc4F)nn23)cc1", "Potency": "active: 17.8 µM"}
{"compound": "CCCCCCCNC(=O)C1(CC2CC(c3ccc(Cl)cc3)=NO2)CCN(C(=O)C2CCCC2)CC1", "note": "(configuration not stated)", "activity, negative = inhibition": "inactive: 12.7%"}
{"compound": "Cc1ccc(C)c(N2CCN(C(=O)CCc3nc(-c4ccccc4F)no3)CC2)c1", "Potency": "inconclusive: 35.5 µM [inhibitor, single point]"}
{"compound": "CSCCC(NS(=O)(=O)c1ccc2c(c1)oc(=O)n2C)C(=O)N1CCN(c2cc(C)ccc2C)CC1", "note": "(configuration not stated)", "activity, negative = inhibition": "inactive: -2.4%"}
{"compound": "COc1ccc(C2CC(=O)NC(NC(=O)c3ccc(Br)cc3)=N2)c(OC)c1OC", "note": "(configuration not stated)", "activity, negative = inhibition": "inactive: -0.683%"}
{"compound": "CCn1c(C)nc2cc(C(=O)N/N=C(\\C)c3ccc(OC)cc3O)ccc21", "Potency": "inconclusive: 11.2 µM [inhibitor, single point]"}
{"compound": "CCCn1c2c(c(O)c(C(=O)Nc3ncccc3O)c1=O)CCCC2", "Potency": "inconclusive: 11.2 µM [inhibitor, single point]"}
{"compound": "COc1ccc(S(=O)(=O)N2CCCCCC2)cc1C(=O)NCc1ccc(C)cc1", "activity, negative = inhibition": "inactive: -9.71%"}
{"compound": "Cc1ccc2c(CN3CCN(C(=O)c4ccc(F)cc4)CC3)cc(=O)oc2c1", "Potency": "inconclusive: 35.5 µM [inhibitor, single point]"}
{"compound": "COc1ccc(C(=O)Nc2ccc(-c3ccc(C)o3)cc2)cc1S(=O)(=O)N1CCOCC1", "activity, negative = inhibition": "inactive: -19.1%"}
{"compound": "Cc1ccc(S(=O)(=O)N2CCN(c3ncnc4sccc34)CC2)cc1C", "Potency": "inconclusive: 11.2 µM [inhibitor, partial curve]"}
{"compound": "N#Cc1ccc(C2=CC(=O)C[C@H](c3ccc(Cl)cc3)C2)cc1", "Potency": "inconclusive: 25.1 µM [inhibitor, single point]"}
{"compound": "CCCCS(=O)(=O)c1oc(-c2cccs2)nc1S(=O)(=O)c1ccccc1", "Potency": "active: 3.16 µM"}
{"compound": "Cc1cc(C)n2c(Nc3ccc(Cl)cc3)c(-c3ccsc3)nc2n1", "activity, negative = inhibition": "inactive: -14%"}
{"compound": "Cc1nn(-c2ccccc2)c(N2CCCC2)c1/C=N/n1cnc2scc(-c3ccccc3)c2c1=O", "Potency": "inconclusive: 17.8 µM [inhibitor, single point]"}
{"compound": "Cc1nc([N+](=O)[O-])c(Br)n1Cc1ccc(Cl)c(Cl)c1", "Potency": "inconclusive: 35.5 µM [inhibitor, single point]"}
{"compound": "CN(C)c1ccc(-c2[nH][nH]c(=O)c2NC(=O)c2ccccn2)cc1", "Potency": "inconclusive: 17.8 µM [inhibitor, single point]"}
{"compound": "COc1ccccc1NC(=O)c1ccc(COc2ccccc2OC)o1", "activity, negative = inhibition": "inactive: -3.32%"}
{"compound": "COc1ccc(C(=O)N[C@H](C(=O)OCCCOC(=O)[C@@H](NC(=O)c2ccc(OC)cc2)C(C)C)C(C)C)cc1", "Potency": "inconclusive: 35.5 µM [inhibitor, single point]"}
{"compound": "Cc1cccc(N(CC(=O)NCc2ccco2)S(=O)(=O)c2ccccc2)c1", "activity, negative = inhibition": "inactive: -1.66%"}
{"compound": "CNC(=S)N1CCN(c2nc(-c3ccc(F)cc3)cs2)CC1", "Potency": "inconclusive: 35.5 µM [inhibitor, single point]"}
{"compound": "N=C1SC(CC(=O)Nc2ccc([N+](=O)[O-])cc2)C(=O)N1c1ccccc1", "note": "(configuration not stated)", "Potency": "inconclusive: 35.5 µM [inhibitor, single point]"}
{"compound": "Cn1cc([N+](=O)[O-])c(C(=O)Nc2cc(Oc3ccccc3)cc([N+](=O)[O-])c2)n1", "Potency": "inconclusive: 28.2 µM [inhibitor, single point]"}
{"compound": "Cc1ccc(NC(=O)Nc2ccnc(-c3cccnc3)n2)cc1", "Potency": "inconclusive: 0.891 µM [inhibitor, full curve]"}
{"compound": "COc1ccc(/C=N/n2cnc3c([nH]c4ccc(F)cc43)c2=O)cc1CN1CCCC1", "Potency": "active: 7.08 µM"}
{"compound": "CC(=O)N1CCOc2cc(S(=O)(=O)NCc3ccc(C)cc3)c(Cl)cc21", "activity, negative = inhibition": "inactive: -10.2%"}
{"compound": "CC(=O)c1c(N2CCOCC2)nc2ccc(Cl)cc2c1-c1ccccc1", "Potency": "inconclusive: 35.5 µM [inhibitor, single point]"}
{"compound": "COc1cccc(CCN2C(=O)C(=O)N([C@@H](CNCc3ccccc3)Cc3ccccc3F)C[C@@H]2C(C)(C)C)c1", "Potency": "inconclusive: 14.1 µM [inhibitor, partial curve, poor fit]"}
{"compound": "Cn1nc(-c2ccc(Cl)cc2)c2cc(C(=O)N3CCCC3)sc21", "activity, negative = inhibition": "inactive: -13.2%"}
{"compound": "Cc1ccccc1CS(=O)(=O)c1nnc([C@H](CC(C)C)NC(=O)OC(C)(C)C)o1", "Potency": "active: 5.01 µM"}
{"compound": "Cc1ccc(-c2sc(-c3ccccc3)nc2CC(=O)Nc2ccccc2F)cc1", "Potency": "inconclusive: 3.16 µM [inhibitor, single point]"}
{"compound": "Cc1ccc(NC(=O)C2CCN(S(=O)(=O)c3c(C)noc3C)CC2)c(C)c1", "Potency": "inconclusive: 35.5 µM [inhibitor, partial curve, poor fit]"}
{"compound": "CC(=O)Nc1ccc(S(=O)(=O)N2CCN(C3CCCCCCC3)CC2)cc1", "Potency": "inconclusive: 5.01 µM [inhibitor, full curve, poor fit]"}
{"compound": "Cc1csc(N(C(=O)c2ccc(S(=O)(=O)N(C)C)cc2)c2ccccc2)n1", "activity, negative = inhibition": "inactive: -16.3%"}
{"compound": "COc1ccc(Cn2c(CCC(=O)NCc3cccc(Cl)c3)nc3cccnc32)cc1", "Potency": "inconclusive: 20 µM [inhibitor, single point]"}
{"compound": "COc1ccc(S(=O)(=O)N(Cc2cc3cc(C)ccc3[nH]c2=O)CC2CCCO2)cc1", "note": "(configuration not stated)", "activity, negative = inhibition": "inactive: -17.1%"}
{"compound": "C=CCn1c(=O)c2ccccc2n2c(SCC(=O)Nc3sc(C(=O)N(CC)CC)c(C)c3C(=O)OCC)nnc12", "Potency": "inconclusive: 14.1 µM [inhibitor, partial curve, poor fit]"}
{"compound": "CCOc1ccc(S(=O)(=O)Nc2ccn(C)n2)cc1", "activity, negative = inhibition": "inactive: 20.7%"}
{"compound": "Cc1cc(C)n2nc(CNS(=O)(=O)c3c(F)c(F)c(F)c(F)c3F)nc2n1", "Potency": "inconclusive: 5.01 µM [inhibitor, single point]"}
{"compound": "CCOC(=O)c1cc(S(=O)(=O)Nc2ccc(C)cc2Cl)[nH]n1", "Potency": "inconclusive: 4.47 µM [inhibitor, full curve, poor fit]"}
{"compound": "CC(C)C[C@H]1CN([C@@H](Cc2ccccc2)CN2CCC[C@@H]2CN2C(=O)C(=O)NC[C@@H]2Cc2ccccc2)C(=O)C(=O)N1CCc1ccccc1", "Potency": "inconclusive: 11.2 µM [inhibitor, partial curve, poor fit]"}
{"compound": "Cn1c(CCN2CCN(c3ccccn3)CC2)nc2cc(NC(=O)COc3ccccc3)ccc21", "Potency": "inconclusive: 25.1 µM [inhibitor, single point]"}
{"compound": "Cc1ccc(C)n1-c1ccc(-c2ccn[nH]2)cc1", "activity, negative = inhibition": "inactive: -12%"}
{"compound": "Fc1ccccc1-c1ccc(/C=N/Nc2nc3ccccc3[nH]2)o1", "Potency": "active: 12.6 µM"}
{"compound": "O=C1C(Cc2ccccc2)NC(=S)N1c1ccccc1", "note": "(configuration not stated)", "activity, negative = inhibition": "inactive: -12.8%"}
{"compound": "CC1CCc2nc(NC(=O)C3CC3)sc2C1", "note": "(configuration not stated)", "activity, negative = inhibition": "inactive: 4%"}
{"compound": "CC1(C)N=c2ccc([N+](=O)[O-])c(N)c2=[N+]1[O-]", "Potency": "inconclusive: 22.4 µM [inhibitor, single point]"}
{"compound": "COc1ccc(-c2noc(Cc3ccc(Cl)cc3)n2)cc1OC", "activity, negative = inhibition": "inactive: -21.1%"}
{"compound": "C=CCn1c(SCc2ccc(Cl)cc2)nc2c1c(=O)[nH]c(=O)n2C", "activity, negative = inhibition": "inactive: 15.5%"}
{"compound": "Cc1ccc(Cl)cc1-n1c(=O)cc(N2CCN(c3ccc(F)cc3)CC2)[nH]c1=O", "activity, negative = inhibition": "inactive: 0%"}
{"compound": "O=C(O)CCN1CC2([N+](=O)[O-])CC=C(OCCO)C([N+](=O)[O-])(C1)C2", "note": "(configuration not stated)", "Potency": "inconclusive: 1.26 µM [inhibitor, partial curve]"}
{"compound": "CC(=O)Nc1ccc(S(=O)(=O)N(C)CC(=O)OCC(=O)NC(C)C23CC4CC(CC(C4)C2)C3)cc1", "note": "(configuration not stated)", "activity, negative = inhibition": "inactive: -8.7%"}
{"compound": "Cc1nn(-c2ccccc2)c(C)c1C(=O)OCC(=O)c1c(N)n(CC(C)C)c(=O)n(C)c1=O", "Potency": "inconclusive: 20 µM [inhibitor, partial curve, poor fit]"}
